Among all 220,000 compounds or so, about 16,000 (7.3%) were called active. Inconclusive means that the source gave no clear call. Such entries were picked first, then a sample of the others. Calls follow the shape of the dose curve; as a rule, active = well fitted inhibition curve with a large enough effect (not every such curve was filed as active); inconclusive = small, poorly fitted or top-dose-only effect, or another doubt; inactive = no such curve, though single readings can be large or run the other way. Potencies of inconclusive entries are left out as doubtful fits.
Molecular target: Aldehyde dehydrogenase 1A1 (Homo sapiens) (UniProt P00352)
Assay: qHTS Assay for Inhibitors of Aldehyde Dehydrogenase 1 (ALDH1A1);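 as to activity, negative = inhibition: plate controls were no enzyme wells and a reference inhibitor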
Conditions: Purified ALDH1A1, NADH fluorescence, propionaldehyde substrate; series mostly up to 75.3 µM; activity, negative = inhibition: at the top concentration
Potency is read from the fitted curve at half-maximal effect; tags tell the direction and shape of the fitted curve.

UniProt P00352, sequence (P00352 whole entry, looked up): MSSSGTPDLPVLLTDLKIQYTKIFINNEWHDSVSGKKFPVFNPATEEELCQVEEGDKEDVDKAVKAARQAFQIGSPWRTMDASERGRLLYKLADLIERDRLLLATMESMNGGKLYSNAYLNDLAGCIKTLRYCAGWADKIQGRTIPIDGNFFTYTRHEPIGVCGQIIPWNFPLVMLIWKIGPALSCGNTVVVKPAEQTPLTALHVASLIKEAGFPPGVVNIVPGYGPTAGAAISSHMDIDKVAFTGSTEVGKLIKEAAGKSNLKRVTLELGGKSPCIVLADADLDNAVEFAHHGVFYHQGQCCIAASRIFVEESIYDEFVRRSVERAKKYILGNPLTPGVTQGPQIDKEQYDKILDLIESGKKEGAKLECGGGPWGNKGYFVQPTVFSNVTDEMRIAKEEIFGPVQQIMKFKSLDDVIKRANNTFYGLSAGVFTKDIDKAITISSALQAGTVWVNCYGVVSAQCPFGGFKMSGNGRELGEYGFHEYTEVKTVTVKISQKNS

Row | SMILES | Potency | activity, negative = inhibition
1 | Cc1nc(SCC(=O)Nc2nc3ccccc3s2)c(C#N)c(C)c1C | inconclusive [inhibitor, partial curve] | –
2 | CCN(CC)CCCn1c(-c2ccccc2)nc2c(N3CCOCC3)nc(C)nc21 | inconclusive [inhibitor, single point] | –
3 | NC(=O)Nc1ccc(C(=O)OCC(=O)Nc2ccc([N+](=O)[O-])cc2C(F)(F)F)cc1 | – | inactive: 5.33%
4 | Cn1cc(C(=O)NCc2ccc(F)cc2)cn1 | – | inactive: 3.92%
5 | CCCCC(=O)Nc1ccc(C(=O)N2CCN(C)CC2)cc1 | inconclusive [inhibitor, single point] | –
6 | CCN(CC)c1ccc(C2C(C(=O)OCCOC(C)C)=C(C)NC3=C2C(=O)CCC3)cc1 (centres undefined) | inconclusive [inhibitor, single point] | –
7 | CC/C(=N\NC(=O)c1ccoc1C)c1ccc(C)o1 | inconclusive [inhibitor, single point] | –
8 | O=C(Nc1cccc(Cl)c1)N1CCCC1 | – | inactive: 17.7%
9 | COc1ccc(CNCc2cccc(Oc3ccccc3)c2)cc1 | active: 14.1 µM | –
10 | Cc1csc(NC(=O)c2cncc(Br)c2)n1 | – | inactive: 6.03%
11 | COC1=C(N)C(=O)c2nc(-c3nc(C(=O)O)c(C)c(-c4ccc(OC)c(OC)c4O)c3N)ccc2C1=O | – | inactive: -8.82%
12 | COc1cc(OC)c(C2CC(=O)N3CN(C)CSC3=C2C#N)cc1OC (centres undefined) | active: 8.91 µM | –
13 | COc1ccc(CN2CCN(c3ccccn3)CC2)c(OC)c1C | inconclusive [inhibitor, partial curve] | –
14 | Cc1cc(/C=N/n2cnnc2)c(C)n1-c1ccc(OCc2ccccc2F)cc1 | inconclusive [inhibitor, single point] | –
15 | Cc1nc(CSc2n[nH]c(=O)n2-c2cccc(F)c2)cs1 | – | inactive: 6.23%
16 | CCN1C(=O)CC(N2CCOCC2)C1=O (centres undefined) | – | inactive: 2.91%
17 | C/C(=N\NC(=O)c1cccc(S(=O)(=O)Nc2ccccc2Cl)c1)c1ccc(-n2ccnc2)cc1 | inconclusive [inhibitor, single point] | –
18 | CCCCP(=O)(CCCC)c1ccccc1C(=O)O | – | inactive: 0.488%
19 | c1ccc(-c2nn3c(Cn4cnc5ccccc54)nnc3s2)cc1 | active: 2.24 µM | –
20 | COC(=O)C[N+](C)(C)C/C=C\c1ccccc1 | – | inactive: -1.82%
21 | O=C(Nc1ccc2nc(-c3ccco3)[nH]c2c1)c1cccs1 | active: 7.08 µM | –
22 | CCOC(=O)C1CCCN(Cc2c(F)cccc2Cl)C1 (centres undefined) | inconclusive [inhibitor, single point] | –
23 | O=C1[C@H]2O[C@@H]2[C@@H](O)[C@H]2[C@H]1CCn1c(=O)n(Cc3cc4c(cc3Cl)OCO4)c(=O)n12 | – | inactive: -2.77% [at 13.5 µM]
24 | COC(C(=O)N/N=C(\C)CC(=O)Nc1ccc(N(C)C)cc1)c1ccccc1 (centres undefined) | inconclusive [inhibitor, partial curve] | –
25 | CS(=O)(=O)N1CCN(C(=S)NCc2ccc(Cl)cc2)CC1 | – | inactive: 2.27%
26 | O=C(CSc1ccc([N+](=O)[O-])cn1)Nc1ccc2c(c1)OCCO2 | inconclusive [inhibitor, single point] | –
27 | COC(=O)c1cn(NC(=O)c2cc([N+](=O)[O-])ccc2F)c(=O)c2ccccc12 | inconclusive [inhibitor, single point] | –

Row | SMILES | Potency | activity, negative = inhibition
28 | COCc1nnc(NS(=O)(=O)c2ccccc2)s1 | inconclusive [inhibitor, single point] | –
29 | Cc1ccc(C(=O)CSc2nnc(-c3ccco3)n2Cc2ccccc2)cc1 | – | inactive: 0.17%
30 | CC(=O)Nc1ccc(Sc2ncccc2C(=O)Nc2ccc(F)cc2)cn1 | – | inactive: 11.8%
31 | COCCNC(=S)Nc1ccc([N+](=O)[O-])cc1C | inconclusive [inhibitor, single point] | –
32 | COc1cccc(-c2ccc3ncnc(N4CCNCC4)c3c2)c1 | – | inactive: -4.37%
33 | Cc1ccc2c(c1)C(c1ccccc1)N(C(=O)c1ccc(S(=O)(=O)N3CCOCC3)cc1)CC(=O)N2 (centres undefined) | active: 7.94 µM | –
34 | CC(C(=O)NCCC1=CCCCC1)c1ccc([N+](=O)[O-])cc1 (centres undefined) | inconclusive [inhibitor, single point] | –
35 | CCCCOc1ccc(CSCCN=C(N)N)cc1 | – | inactive: 5.36%
36 | COc1ccc(S(=O)(=O)Nc2ccccc2C)cc1 | – | inactive: 1.52%
37 | COc1ccccc1CNC(=O)C(CC(C)C)NC(=O)C1CCC(C)CC1 (centres undefined) | – | inactive: -1.59%
38 | CN(C)CCN(C(=O)c1cccc(Cl)c1)c1nc2c(Cl)cccc2s1 | – | inactive: -1.07%
39 | CCN(Cc1ccncc1)C(=O)CCc1nnc(CCc2ccccc2OC)o1 | – | inactive: 2.73%
40 | Cc1cc(NC(=O)CCCC(=O)Nc2ccc(F)cc2)no1 | – | inactive: 13.7%
41 | S=C(Nc1ccccc1)Nc1ccccc1Br | – | inactive: 2.38%
42 | CCN(C(=O)COC(=O)/C=C/c1cccc([N+](=O)[O-])c1)c1ccccc1 | active: 14.1 µM | –
43 | CNc1nc(C)c(C(=O)c2ccc(Cl)cc2)s1 | – | inactive: 31.2%
44 | O=c1nc2n(c3c4c(sc13)CCC4)CCC2 | active: 17.8 µM | –
45 | Cc1cccc(NC(=O)CNC(=O)COc2ccc(-c3ccc(C#N)cc3)cc2)c1C | inconclusive [inhibitor, partial curve] | –
46 | COCc1ccc(O)c2ncccc12 | – | inactive: 3.01%
47 | CC(=O)c1ccc(N=C2SCCCN2C(=O)C2CCCCC2)cc1 | inconclusive [inhibitor, single point] | –
48 | O=C(c1ccccc1Oc1ccccc1)N1CCN(c2ccccc2F)CC1 | – | inactive: -8.29%
49 | Cc1no[n+]([O-])c1COc1ccccc1/C=C1\NC(=S)NC1=O | inconclusive [inhibitor, single point] | –
50 | CCOc1ccc(CNC(=S)N/N=C\c2ccc([N+](=O)[O-])cc2)cc1 | active: 3.16 µM | –
51 | CCN(CC)CCCNc1cc(C)nc2cc(-c3cccs3)nn12 | inconclusive [inhibitor, single point] | –
52 | CCN(CC)C(=S)NC(=O)c1ccc(OC)c(Br)c1 | inconclusive [inhibitor, single point] | –
53 | O=C1OCC2=C1C(c1ccc(F)cc1)Sc1ccccc1N2 (centres undefined) | – | inactive: -0.732%
54 | Oc1c(C(c2cccs2)N2CCN(c3ccccc3)CC2)ccc2cccnc12 (centres undefined) | active: 2 µM | –

Source: PubChem BioAssay AID1030 (National Center for Advancing Translational Sciences (NCATS), 2008)
